Assay results taken from the supplement of paper PMC3334620.
In all, about 33,000 sequences were measured (“E-score (-0.5 to 0.5)”: median about -0.043, highest 2% from about 0.37 on). Some of the results follow.

biological target: T1, Upc2 (UniProt Q12151); assay: PBM E-score (8-mer binding enrichment) (E-score (-0.5 to 0.5)); higher = stronger / more preferred TF binding; most listed sequences are background and not binding sites; details: protein concentration: 200 nM; construct: GST-full length
T1 sequence: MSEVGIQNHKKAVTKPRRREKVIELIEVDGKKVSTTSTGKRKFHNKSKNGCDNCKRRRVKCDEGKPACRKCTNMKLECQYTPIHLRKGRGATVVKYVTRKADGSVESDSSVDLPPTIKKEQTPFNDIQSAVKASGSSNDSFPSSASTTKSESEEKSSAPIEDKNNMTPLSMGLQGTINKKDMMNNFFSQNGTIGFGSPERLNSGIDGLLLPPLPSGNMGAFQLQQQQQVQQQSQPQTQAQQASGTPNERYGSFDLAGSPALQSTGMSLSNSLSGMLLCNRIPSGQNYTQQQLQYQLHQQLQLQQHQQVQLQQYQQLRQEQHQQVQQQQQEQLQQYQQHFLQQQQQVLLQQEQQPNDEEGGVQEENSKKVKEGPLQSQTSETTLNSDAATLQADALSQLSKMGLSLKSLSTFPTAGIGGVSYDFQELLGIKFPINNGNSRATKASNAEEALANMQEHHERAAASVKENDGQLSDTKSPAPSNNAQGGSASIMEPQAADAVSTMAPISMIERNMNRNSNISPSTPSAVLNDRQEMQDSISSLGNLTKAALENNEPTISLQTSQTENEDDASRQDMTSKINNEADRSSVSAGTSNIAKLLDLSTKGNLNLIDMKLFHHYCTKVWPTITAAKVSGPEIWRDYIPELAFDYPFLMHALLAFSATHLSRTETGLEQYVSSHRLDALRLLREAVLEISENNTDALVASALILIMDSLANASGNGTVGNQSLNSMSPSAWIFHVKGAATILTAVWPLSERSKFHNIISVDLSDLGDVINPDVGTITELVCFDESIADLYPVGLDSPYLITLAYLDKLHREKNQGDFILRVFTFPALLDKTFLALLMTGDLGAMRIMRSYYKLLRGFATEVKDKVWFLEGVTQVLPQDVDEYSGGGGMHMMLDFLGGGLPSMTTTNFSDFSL
Outline: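 Bound GST-tagged yeast transcription factors, applied at about 100-200 nM to double-stranded universal all-10-mer Agilent arrays, were detected with fluorescent anti-GST. Scans were normalised with masliner. A modified Wilcoxon-Mann-Whitney statistic, the E-score, was assigned to each ungapped eight-base word pooled with its reverse complement by the Universal PBM Analysis Suite.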

Sequence	PBM E-score
ACAGGGAG	-0.171
CCGAACTC	0.065
AGTGCAGG	-0.112
TCAGGCCA	-0.217
AGTGTTAG	-0.0186
AGTCATTG	-0.135
CCACGGCA	-0.067
TAAGGCAA	0.0186
ATACCTTA	0.0345
CCTTCTCC	-0.226
CCAACGTC	0.0256
CTCAATTA	-0.0164
CGACACGA	0.224
AACGAAGC	0.408
ACCTGCAT	-0.186
CTAATAAG	0.0325
ATCCTCAT	-0.0808
AGGCAGTC	-0.0951
GGTCCGCA	-0.087
AAACCTGT	0.225
ACTAGCAT	-0.158
ACATATTC	-0.0293
CAGACGGA	-0.13
CGCATACC	0.212
AAGGCATG	-0.0289

Sequence	PBM E-score
AGGCGTAA	0.0563
AGCAACCG	-0.00088
CATCAGGG	-0.232
AACGGGCT	0.191
GGTGATTA	-0.141
ACCCTCCA	-0.254
AATCGGCC	-0.133
CCGATCCA	-0.178
AAAGTTTC	-0.00066
GAGTCGCA	0.0248
CAGGTGAG	-0.277
GGCAATGA	-0.0827
CACGCTGG	-0.234
CAAGTACA	-0.101
CTGACTTC	-0.125
GGCCCCAC	-0.202
AAGGATTA	-0.0641
GTACATTA	0.298
AGGTTGAC	-0.178
AACTTGCG	0.258
ATCAGACA	-0.205
CTAGTTAC	0.0625
GTCAAACA	0.0917
CCCATGGC	-0.25
AATTTGCA	-0.216

Sequence	PBM E-score
GCGTAACA	0.118
AGTTTGTG	-0.0631
CTCATGAA	-0.00906
ATAAACAA	0.0523
CAGGGGCA	-0.067
CTCCTTCA	-0.0755
AGGGATAT	-0.271
CACACTAC	-0.119
AATTTAAC	0.228
CCGTATCC	0.331
CATGTGCC	-0.0558
GTCCCGTA	0.25
ATCCACGG	0.00946
GTAGCATA	-0.0733
TTAAAAAA	0.129
ACCCCGTG	-0.0557
CGTAATAC	0.274
CCGCTGGA	-0.0874
ATTATTCG	0.179
GTAAGGAA	0.0353
CGAGCGAG	0.28
ATTATAAG	0.151
GCTTAGGA	-0.0422
CCATTACA	0.154
CGGAGCCA	-0.254

Sequence	PBM E-score
GAGGGCAC	-0.183
ACCCTTTA	-0.00687
ACGGCAAA	0.174
AGCCCCCC	-0.0354
CAATATCG	0.0727
CGCAGAGC	-0.107
CTAACTGC	-0.183
AACCCCCC	-0.204
ATGCCCCC	-0.151
GCATCTTA	0.184
CCTATGCG	0.152
AACCGTCG	0.246
ATCCCGCA	-0.0502
CATCGTGC	0.054
AAAAGCGA	0.175
GTCCTTGA	-0.103
CTCCGTGA	-0.152
ACCTACAG	-0.143
GAGACTAC	-0.0152
CCGAAAAC	0.0594
AAGACTGA	-0.0443
CCAATTAC	0.0231
AATGGTAG	0.142
GTCGCTGA	-0.0513
GACCACAA	-0.239

Sequence	PBM E-score
CATCAAGG	-0.155
GTACTAAC	0.0835
ACATACAG	-0.0295
AGCGATGG	-0.00122
AAATGCTG	-0.0296
CTTGGTGA	-0.0852
AATTAAGC	0.207
CCTGAGTA	-0.119
CTGGCCGC	-0.329
CTCAGTAA	-0.00462
GAATAAGA	0.0821
AAATTATA	0.112
CATCTGGC	-0.219
CCGGAAGG	-0.336
AACTATGC	0.051
CTTTAACC	0.0671
ACGTTGAG	-0.0536
AAGCCAAA	-0.0119
CATAGCCC	-0.234
ATAAACTG	-0.0103
TAGAATAA	-0.0184
CACAGGCC	-0.201
GGGCACAC	-0.26
CATTTCGA	0.0247
CTGGAATC	-0.224

Sequence	PBM E-score
TCATTGAA	0.089
GAGCGGGA	-0.0733
TGTTTTAA	0.0305
CGAATGGA	0.0618
CATACACA	-0.0566
AATTAAAA	0.0987
ATTCCCGA	-0.0491
ACGTTTAC	0.369
CATCCGGA	-0.146
ACCCACCA	-0.0846
ATGTCGAA	-0.0759
GGGGCGGA	-0.0859
TACACTCA	0.0414
AATGAATG	-0.207
AGACTCAA	-0.0452
CTAAAACA	-0.0791
CCTCGGTC	0.19
CATTAGAG	-0.169
CTTAGAAC	0.00227
CTCTAACA	-0.111
AAGTGGCG	0.0293
CATTCTGG	-0.169
CTGAAGGA	-0.309
AGTAGTCC	-0.107
CTCTAGTA	-0.184

Sequence	PBM E-score
AATTCTTC	0.115
ACCACGAT	0.0232
GCTCGTGA	0.00182
CCTCTTTC	-0.156
GTCCACCA	-0.134
CAGTTTGG	-0.266
GCGTGAGC	0.0279
CATTACAC	0.132
GGTTCTAA	-0.0363
CGATATGC	0.149
ACCGCTAT	-0.0957
TAAGGAGA	-0.186
ATCCACCG	0.0348
CCCTTGAA	-0.129
ATTTGTGC	0.125
CCACCTGG	-0.371
ATGTTTCG	0.0556
CGTGGTAA	-0.117
ACTGGTTG	-0.114
AGTCAGAC	0.00734
GAAAATGC	0.0565
CCTATCAG	-0.238
CAGATACC	-0.184
AGCCGATC	-0.123
ATCAACGG	0.0765

Sequence	PBM E-score
GCAATGCA	-0.0366
AGAGCCTG	-0.0262
ACTTTGGG	-0.338
AAGGTACG	0.393
CAGACTGC	-0.057
GTGAATGA	-0.134
TCTAAGAA	-0.0204
ACAATTAC	0.133
AGACCGCG	0.075
ACTCGTAG	0.353
GCCAGCGC	-0.189
AACCCCTA	-0.214
AGAGATAG	0.0762
GCCGGGCA	-0.207
ATACTTGA	-0.0534
AGCGGCTC	0.122
AATCTGGA	-0.0824
GGCCATAA	-0.138
CCGGATAC	0.101
AATACATC	0.0318
CGAGAGAG	0.17
GGCGGCCC	-0.266
AACATTCA	-0.0881
GTCGTTGA	0.29
CCATTAGG	-0.249

Sequence	PBM E-score
CGAACGAG	0.427
AATACGAC	0.435
AGGATCAA	-0.144
ATAATCTG	-0.246
AAATCCCT	-0.13
ACCCCACC	0.0949
CAAGATCA	-0.208
CGACTCAG	-0.0901
ACTTACTA	-0.0802
CTTTCTAA	-0.127
ATACCCCA	-0.0468
TGGGGACA	-0.106
GAGTCTCA	-0.168
AGACATTA	-0.191
CAAAGGCG	-0.0107
ATTGTGAA	0.0323
GCAAGGTA	-0.0839
CAGCCCCA	-0.0376
CCTATGAA	-0.25
GGATACAA	-0.0197
CACCGCGG	0.0827
ACCTCACA	-0.0443
ACCTCGAG	0.0906
CATTATTA	0.0362
CCTTAAAC	0.315

Sequence	PBM E-score
CGGACCGA	0.168
CCCGGGAC	-0.271
TCACAAAA	-0.0213
CTTGTGTC	-0.134
CCCTGGAA	-0.172
AGCACGGA	-0.0713
ACACACCC	0.0815
TGGATAAA	0.0644
ACGTATCC	0.163
CGTTGTCC	0.0654
CCCGAGGC	-0.1
ATGCCAAG	-0.107
CCAACTCG	0.0935
ACGGGTTA	0.259
CCTGCCGA	-0.16
TCCATAGA	-0.3
GTACACTA	0.0604
CTATGGCC	-0.34
ACAAATGG	0.0454
CTGTACTA	-0.0771
CTACACGC	-0.257
AAGTTACA	-0.134
TAGTGTGA	0.0555
AGTCGCGA	0.175
AGCTATCC	-0.194

Sequence	PBM E-score
AGGTTCAT	-0.041
CGTAACTC	0.237
CATACCAC	0.0195
CCGCGTGC	-0.139
GATTAAAA	0.0648
CACATGGC	-0.0315
AGAAGACC	-0.236
CATATTTC	0.00061
CCGATTGC	0.00685
CGTTCCCA	0.373
CAACAATG	-0.0499
CCCCATAG	-0.104
GTGGACAC	-0.158
AGCATCAG	0.00127
ATAGTCCA	-0.171
CCGTCGAA	0.0446
ACGAGGTA	0.382
AAATATTA	0.229
ATCAATCC	-0.217
ACACTATG	-0.0971
ACTTGTAT	-0.0309
GGGCAACC	-0.112
AGCTCAAG	-0.193
CTATAGGC	-0.135
CTTGAAAG	-0.0901

Sequence	PBM E-score
CCACCGAG	-0.23
GCGCGAGC	-0.13
TACCCAAA	0.0123
CCGCAAAC	0.174
GCACGCGA	-0.0589
CTAAGTCC	-0.26
GGGGTGAC	-0.0843
CTGAGTTC	0.0433
CTCACTCC	-0.322
GCACTACC	0.0706
GAATGAAC	0.145
AGGTAACA	-0.11
GCAATCCC	-0.067
AAGCAGCG	-0.0244
ACAGTCGA	-0.0401
AAAAGAAA	0.102
GAACCCGA	0.0311
CAGAACGC	-0.0286
CCCTCGGC	-0.0234
GAGTCTCC	-0.166
CAAATCTA	0.0813
GCAAACAC	-0.00637
CTGTTCTC	0.0583
CGCGAACC	0.192
CGACAAAG	0.16

Sequence	PBM E-score
AAGTTTTC	0.1
ATTCCTGC	-0.0454
CATGAAGA	-0.0719
AAGGGAGT	-0.268
GTCCTATA	0.143
AGACGAAG	0.0695
AAATGCAA	-0.148
CGACGATA	0.169
AACGTGGA	0.139
ACGCAAAG	0.0103
AAAGTCCT	-0.142
GTGTCTAA	-0.0973
ACGACTTG	0.214
CTGCTTAC	0.0628
AGCCCACG	0.0285
ACAACAGC	-0.059
AGTTCTGA	-0.229
CGCGTATC	0.253
ATTCCGGG	-0.196
AGGTAATC	-0.0565
AAAGGGCA	-0.298
ATAAGACA	0.158
CAACTTCA	-0.0217
TGGGAACA	-0.162
GAGAGACC	-0.274

Sequence	PBM E-score
ACGTCCGC	0.0785
ACTCGAAA	0.032
TACATCTA	0.0402
ACAACCGT	0.177
ACAACCTA	-0.0634
ACATGGCC	-0.106
TTGACCAA	-0.179
CGAAGGAG	0.0415
ACGAGTCG	0.384
CGTAACAA	0.218
ATAAACTA	0.0359
ATTCTGTC	0.111
ACATAGCT	-0.218
GTCTCTGA	0.0241
CGCTTTAA	0.0631
AATGTCAC	-0.182
TCACTTAA	-0.0131
ACCATTAG	-0.138
GTAATACA	0.111
